Measurements reported in the supplement of paper PMC11417369.
This is one part of the list.

tested on: PF3D7_0420300 AP2 domain 1 (GST-tagged); assay: gcPBM binding intensity (ln(normalized median fluorescence intensity)); higher = stronger DNA binding
Procedure, shortened: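 GST-fused DNA-binding domains of P. falciparum, expressed in E. coli, were applied at about 25 μg on average for 1 h to an Agilent 4 × 180k array of primer-extended double-stranded 36-bp intergenic genomic probes and negative controls. Binding intensity is the highest Masliner-normalised natural-log median intensity across replicate spots of either probe orientation, measured with Alexa488 anti-GST antibody and a 488 nm scan.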

Row | Sequence | gcPBM binding intensity (ln)
1 | TATTTTTTAAGTGAACATTTGTTATTATATTCTTAT [GTGCAC_negctrl_site172] | 9.16
2 | TATATCTGTATCATTACACACATGTATACTTATTTG [CACACA_site6134] | 9.75
3 | AGAAGATTAAAAATTGCACACAAAAATATATTTTCT [CACACA_site8359] | 9.4
4 | TAATAAATAAAAACATGTACATATATACATATATGT [XGTACX_site485] | 9.28
5 | GATATATAGGTATTTACACACAATGTGAGATCTATA [CACACA_site7575] | 9.58
6 | AAAGACTTTTTATGAGCACACACATATATTATGGAG [CACACA_site8254] | 9.37
7 | TTTCTATAATATATATGTACATATATAATATGTCGT [XGTACX_site3676] | 9.08
8 | AGATAAAATAAATACACACACATAAATACGTACAAA [CACACA_site4739] | 10.2
9 | ATGATTATACAAAATATACACACGTGGACACAAATA [CACACA_site8304] | 9.81
10 | TGATAATAAGCATACACACACACACTAAAAAAAAAA [CACACA_site6478] | 10.2
11 | GGTTATAACCCACATGCACACGTAAATAAATATTAT [CACACA_site5992] | 9.44
12 | ATAAATAATAAGGTTACAACAAACACACAAAGGAAT [XGTACX_negctrl_site611] | 10
13 | TAAAAAAAAAAGTATACACACTTCTTAATGTCAACA [CACACA_site4818] | 9.22
14 | TGTCCAATTTATTGTGCACACCTCAAAAGTGGGTAA [CACACA_site3826] | 9.22
15 | CTATATATTTTTCATTGTACACAAATTAAAGAAAAA [XGTACX_site8385] | 8.9
16 | TTTTTTTATAAATTCACACAAAATATAATATTAAAA [CACACA_site4766] | 8.93
17 | AATGTCATCATATTCATATATATTTATTTCTTTTTG [GTGCAC_negctrl_site500] | 9.42
18 | ATATAATCCTTTCAAACACACAAAATATAATTAATA [CACACA_site1829] | 9.4
19 | ATGATGGAATATTCTACACACAATTAATAAACAAAC [CACACA_site1045] | 9.87
20 | AAAAAAAAAAGACACACACACAATAGTATATAAATC [CACACA_site6579] | 10.2
21 | TTTTTATTTTTTCAAGTGCATATTTTTGGCTTCTTA | 9.08
22 | TATATATATATATTACGTTTTAAATATACTAATCTT [CACACA_negctrl_site32] | 9.18

Row | Sequence | gcPBM binding intensity (ln)
23 | AAAAAAAAAAAAAATACACACATATATATATATATA [CACACA_site85] | 9.45
24 | CTTTTTCCTTTATATTGTACATAATTAAAGATAATA [XGTACX_site7014] | 9.05
25 | TAAATTTATATATAGGTGCGCAATTTGATAATAGTT [GTGCAC_site9783] | 9.37
26 | TATAAATAGATATATACACACATTTTTAATGATAAA [CACACA_site7299] | 9.47
27 | AATAAAAATATAGGCACACATATTAAAATGAACTTA [CACACA_site830] | 9.53
28 | TAAAGATGTATTTATTCACACATCTCATATAATGAA [CACACA_site5229] | 8.94
29 | TTATGTATCCTTATAAGAAAAAAAAAAAAATTCTCT [CACACA_negctrl_site1183] | 8.88
30 | TGAATTTAGATATATACACACAAAAGTAAATACAAT [CACACA_site5548] | 9.77
31 | GAATATTAAACAAACACACACACATATATATATATA [CACACA_site3382] | 9.78
32 | AGTAGTCTGGAGAAAAGTACACAGTATCTGGTAACC [XGTACX_site2035] | 9.28
33 | AATATATACATACATACATGCATACATATATATAAC [TGCATGCA_site371] | 9.37
34 | TTTAAATATATTCAATCACACACATTCGTTTTTTTT [CACACA_site7962] | 9.61
35 | GTATAAAAATTATATACACACAACAGAATTACATAT [CACACA_site133] | 9.8
36 | GTTTATTGATTTATTTGTACTTATATATATATTTCA [XGTACX_site5098] | 9.77
37 | TAAATACAGACATATACACACATATATATATATATA [CACACA_site4382] | 9.28
38 | ATGTATATGTTTTGTTGTACAAGTATTTTATATCTT [XGTACX_site3588] | 9.54
39 | TTTCAATTTATCAGTGTGCACAAAAATAAAATAAAA | 9.25
40 | ATTTCAAATTAATTTACACACTTCATACTAAAAGAC [CACACA_site3176] | 9.45
41 | TTGATATATAATAATACACACTTACATAATTAATTA [CACACA_site4320] | 9.35
42 | AAGGATATGAAAAGTAGTACAAAATTTAGAACACCC [XGTACX_site4758] | 9.63
43 | ATTATATTCTCCTTCACACACAAAAATATTTCATCA [CACACA_site5326] | 9.74
44 | TTACGATTAAATATAACACACAACATATTTTTAATA [CACACA_site2967] | 9.48
